Experimental data: publication PMC5696382
Positions count from the first letter of the chain named. These are yes or no findings as the source states them, for the method shown. Binding seen in cells or lysates may run through a third protein. Some entries that bind do so weakly or less than the wild type. For some assays here: Tags and fused reporters may be left off the sequences shown.

Sequences of proteins named here, by UniProt entry; tags and fusion partners are left off. A change or cut given only in a name is not applied to a line headed by its entry. A line that says so, or that is headed by a name, gives the form on record, which may keep a tag or linker. Residues count along the entry.
UniProt Q13586: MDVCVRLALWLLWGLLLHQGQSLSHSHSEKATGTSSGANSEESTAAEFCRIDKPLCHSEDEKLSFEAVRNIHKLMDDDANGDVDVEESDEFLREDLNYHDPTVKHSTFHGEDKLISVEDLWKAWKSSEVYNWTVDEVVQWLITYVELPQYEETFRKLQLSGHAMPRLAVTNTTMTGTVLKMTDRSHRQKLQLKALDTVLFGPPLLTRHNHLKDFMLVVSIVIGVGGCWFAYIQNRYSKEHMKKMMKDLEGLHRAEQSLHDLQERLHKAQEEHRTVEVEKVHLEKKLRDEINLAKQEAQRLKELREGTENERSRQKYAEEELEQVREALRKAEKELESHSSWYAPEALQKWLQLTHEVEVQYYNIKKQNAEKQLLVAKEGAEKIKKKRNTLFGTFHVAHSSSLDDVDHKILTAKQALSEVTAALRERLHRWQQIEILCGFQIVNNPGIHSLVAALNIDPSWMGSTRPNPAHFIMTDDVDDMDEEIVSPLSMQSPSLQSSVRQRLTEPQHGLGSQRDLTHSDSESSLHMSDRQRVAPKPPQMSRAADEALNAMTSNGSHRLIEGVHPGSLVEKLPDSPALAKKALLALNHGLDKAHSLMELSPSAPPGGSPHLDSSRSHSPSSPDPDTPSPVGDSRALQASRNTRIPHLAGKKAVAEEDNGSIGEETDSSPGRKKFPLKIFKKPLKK
STIM1-WT-GFP expressed in BM-DCs: residues 23-685 of Q13586
STIM1-ΔCt, GFP-tagged: residues 23-237 of Q13586
STIM1-CAD, GFP-tagged: residues 342-448 of Q13586
STIM1-D76A, GFP-tagged (constitutively active STIM1) (Q13586, form named): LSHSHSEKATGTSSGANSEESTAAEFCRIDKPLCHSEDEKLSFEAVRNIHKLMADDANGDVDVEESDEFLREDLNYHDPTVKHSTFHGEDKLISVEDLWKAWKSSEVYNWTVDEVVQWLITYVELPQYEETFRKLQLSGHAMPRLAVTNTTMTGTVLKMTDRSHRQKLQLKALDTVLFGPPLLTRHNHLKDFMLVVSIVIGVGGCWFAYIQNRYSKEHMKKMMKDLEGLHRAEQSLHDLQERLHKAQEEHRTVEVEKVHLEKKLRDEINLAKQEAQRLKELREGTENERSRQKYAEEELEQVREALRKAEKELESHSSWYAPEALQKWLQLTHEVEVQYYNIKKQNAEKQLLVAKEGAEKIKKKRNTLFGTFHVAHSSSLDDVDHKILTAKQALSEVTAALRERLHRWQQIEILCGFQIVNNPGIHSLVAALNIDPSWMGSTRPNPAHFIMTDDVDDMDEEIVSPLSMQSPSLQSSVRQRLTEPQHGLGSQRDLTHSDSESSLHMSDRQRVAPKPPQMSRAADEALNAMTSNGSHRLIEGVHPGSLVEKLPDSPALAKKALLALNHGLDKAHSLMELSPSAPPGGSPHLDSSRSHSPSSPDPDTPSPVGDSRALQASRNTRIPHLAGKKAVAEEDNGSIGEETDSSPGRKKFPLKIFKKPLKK
UniProt P70302, residues 23-685: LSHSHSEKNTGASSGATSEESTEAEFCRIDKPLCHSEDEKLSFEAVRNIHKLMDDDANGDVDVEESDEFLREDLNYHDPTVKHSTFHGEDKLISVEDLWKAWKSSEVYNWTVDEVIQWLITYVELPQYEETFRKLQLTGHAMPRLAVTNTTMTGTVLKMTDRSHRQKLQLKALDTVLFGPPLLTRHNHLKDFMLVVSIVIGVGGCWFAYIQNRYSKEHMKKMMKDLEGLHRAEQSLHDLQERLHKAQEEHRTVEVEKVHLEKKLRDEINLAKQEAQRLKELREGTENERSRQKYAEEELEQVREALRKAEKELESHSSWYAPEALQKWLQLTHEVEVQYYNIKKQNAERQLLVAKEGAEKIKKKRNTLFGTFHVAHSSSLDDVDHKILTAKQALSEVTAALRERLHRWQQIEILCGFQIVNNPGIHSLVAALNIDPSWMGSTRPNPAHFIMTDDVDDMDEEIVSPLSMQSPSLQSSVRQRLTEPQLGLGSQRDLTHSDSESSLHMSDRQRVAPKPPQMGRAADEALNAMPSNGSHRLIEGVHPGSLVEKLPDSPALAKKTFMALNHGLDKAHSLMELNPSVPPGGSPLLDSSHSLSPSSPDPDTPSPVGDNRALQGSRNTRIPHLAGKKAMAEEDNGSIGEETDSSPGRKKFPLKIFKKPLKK

T1: UNC93B1 3d, FLAG-tagged (His 412 to Arg) (mouse) (UniProt Q8VCW4)
T1 sequence: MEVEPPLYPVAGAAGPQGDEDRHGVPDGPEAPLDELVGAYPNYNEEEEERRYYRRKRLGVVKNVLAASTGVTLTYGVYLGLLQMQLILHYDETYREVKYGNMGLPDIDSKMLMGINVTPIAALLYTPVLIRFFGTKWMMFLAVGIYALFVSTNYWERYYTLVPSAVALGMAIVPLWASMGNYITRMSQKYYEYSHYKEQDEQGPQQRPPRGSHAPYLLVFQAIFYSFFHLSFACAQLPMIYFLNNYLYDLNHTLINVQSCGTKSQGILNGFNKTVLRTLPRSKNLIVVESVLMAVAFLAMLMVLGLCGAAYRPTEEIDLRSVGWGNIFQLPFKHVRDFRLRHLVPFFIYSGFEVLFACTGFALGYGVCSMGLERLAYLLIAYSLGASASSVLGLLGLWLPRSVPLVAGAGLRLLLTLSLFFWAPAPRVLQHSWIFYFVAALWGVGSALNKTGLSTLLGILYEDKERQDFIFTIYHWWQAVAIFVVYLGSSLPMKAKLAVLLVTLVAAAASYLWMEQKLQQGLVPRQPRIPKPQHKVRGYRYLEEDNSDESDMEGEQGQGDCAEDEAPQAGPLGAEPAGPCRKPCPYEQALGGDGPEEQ

T2: UNC93B1 WT, FLAG-tagged (uncoordinated 93 homolog B1) (mouse) (UniProt Q8VCW4)
T2 sequence: T1 sequence with R412H

B1: UNC93B1 WT, FLAG-tagged (uncoordinated 93 homolog B1) (protein, UniProt Q8VCW4 1-598)
chain: T1 sequence with R412H
B2: UNC93B1 3d, FLAG-tagged (His 412 to Arg) (protein, UniProt Q8VCW4 1-598)
chain: T1 sequence
B3: UNC93B1, endogenous in WT BM-DCs (protein, UniProt Q8VCW4 1-598)
chain: T1 sequence with R412H
B4: UNC93B1 3d, endogenous in 3d/3d BM-DCs (protein, UniProt Q8VCW4 1-598)
chain: T1 sequence

Columns and labels:
[1] = biological target: T1, UNC93B1 3d, FLAG-tagged (His 412 to Arg) (mouse); test: co-IP; murine fibroblasts co-transfected with Stim1-GFP and FLAG-tagged UNC93B1 (WT or 3d); immunoprecipitation of UNC93B1-tagged protein (protein G beads coated with anti-FLAG antibody); Supplementary Fig. 4a
[2] = biological target: T2, UNC93B1 WT, FLAG-tagged (uncoordinated 93 homolog B1) (mouse); test: as above
[3] = biological target: STIM1-WT-GFP-tagged (stromal interacting protein 1) (UniProt Q13586); test: co-IP; murine fibroblasts co-transfected with GFP-tagged STIM1 forms and FLAG-tagged UNC93B1 (WT or 3d); 4 mg of cell lysate o/n with GFP-Trap_MA beads (STIM1 as bait); immunoblot with anti-GFP and anti-FLAG
[4] = biological target: STIM1-D76A, GFP-tagged (constitutively active STIM1) (UniProt Q13586); test: as above
[5] = biological target: STIM1-ΔCt, GFP-tagged (UniProt Q13586); test: as above
[6] = biological target: STIM1-CAD, GFP-tagged (UniProt Q13586); test: as above
[7] = biological target: STIM1, endogenous in BM-DCs (mouse (endogenous in BM-DCs)) (UniProt P70302); test: co-IP; endogenous proteins in BM-DCs; lysis in 50 mM Tris-HCl pH 7.4, 150 mM NaCl, 5 mM EDTA, 1% NP-40; protein G beads coated with anti-STIM1 antibody; UNC93B1 detected with anti-UNC93B1
[8] = biological target: STIM1-WT-GFP expressed in BM-DCs (UniProt Q13586); test: proximity ligation; Duolink in fixed, permeabilised WT or 3d/3d DCs transfected with GFP-tagged STIM1 (WT or D76A); anti-GFP and anti-UNC93B1 antibodies; steady state and after 60 min of phagocytosis of 3 μm beads; confocal microscopy

| Molecule | binding [3] | binding [4] | binding [8] | other results |
| --- | --- | --- | --- | --- |
| STIM1-WT-GFP-tagged (stromal interacting protein 1) (from UniProt Q13586 23-685) | – | – | – | binding [1]: binds; binding [2]: binds |
| B1 | binds | no binding | – | binding [5]: binds; binding [6]: no binding |
| B2 | binds | no binding | – | – |
| B3 | – | – | binds | binding [7]: binds |
| B4 | – | – | binds | – |
